The other results are listed elsewhere or left out. Cut-off read from the data, not from the text of the source: active = 3.2 or more and inactive = the rest. Only a few entries rise above the background.
B1: TUBA3E_Y161 (peptide)
chain: RLSVDYSKKSK
B2: TWNK_Y508_Y508C_YF (peptide)
chain: HAVFVCDICHV
B3: TUBB8_Y340 (peptide)
chain: DKNSSYFADWL
B4: TTR_Y125_R124H (peptide)
chain: SGPRHYTIAAL
B5: TTN_Y31722 (peptide)
chain: ENAGYYFRVSA
B6: TUBA1A_Y185_I188L (peptide)
chain: AVVEPYNSLLT
B7: TUBGCP6_Y1624_V1621L (peptide)
chain: GCLSKYSGVFS
B8: TUBB2B_Y208_I210T (peptide)
chain: DNEALYDTCFR
B9: TUBA1A_Y399 (peptide)
chain: KFDLMYAKRAF
B10: TUBB2B_Y208 (peptide)
chain: DNEALYDICFR
B11: TUBB3_Y422 (peptide)
chain: DLVSEYQQYQD
B12: TUBB2B_Y200 (peptide)
chain: NTDETYCIDNE
B13: TUBA3E_Y399 (peptide)
chain: KFDLMYAKWAF
B14: TUBA1A_Y262_P263T (peptide)
chain: TNLVPYTRIHF
B15: TTN_Y33421_E33419D (peptide)
chain: TRTDAYAVSSF
B16: TUBA1A_Y282_L286F (peptide)
chain: SAEKAYHEQFS
B17: TTN_Y32175_T32171N_YF (peptide)
chain: SNKELYEKFMI
B18: TTN_Y31722_V31725I (peptide)
chain: ENAGYYFRISA
B19: TUBA4A_Y210 (peptide)
chain: DNEAIYDICRR
B20: TTN_Y31722_R31724Q (peptide)
chain: ENAGYYFQVSA
B21: TTR_Y125_I127V (peptide)
chain: SGPRRYTVAAL
B22: TUBA3E_Y103_S101N (peptide)
chain: DAANNYARGHY
B23: TWNK_Y508_Y508C (peptide)
chain: HAVYVCDICHV
B24: TTN_Y33421 (peptide)
chain: TRTEAYAVSSF
B25: TTR_Y125_T126N (peptide)
chain: SGPRRYNIAAL
B26: TUBA1A_Y399_R402H (peptide)
chain: KFDLMYAKHAF
B27: TUBA3E_Y103 (peptide)
chain: DAASNYARGHY
B28: TUBB3_Y422_D417N_YF (peptide)
chain: NLVSEYQQFQD
B29: TXNRD2_Y70 (peptide)
chain: VAVVDYVEPSP
B30: TUBB3_Y422_D417N (peptide)
chain: NLVSEYQQYQD
B31: TUBB2B_Y200_C201S (peptide)
chain: NTDETYSIDNE
B32: TTR_Y125_I127M (peptide)
chain: SGPRRYTMAAL
B33: TUBA4A_Y210_R215C (peptide)
chain: DNEAIYDICRC
B34: TUBGCP6_Y1624 (peptide)
chain: GCVSKYSGVFS
B35: TUBA3E_Y103_S101N_YF (peptide)
chain: DAANNYARGHF
B36: TUBA4A_Y161_Y161C (peptide)
chain: RLSVDCGKKSK
B37: TUBA4A_Y319_R320H (peptide)
chain: ACCLLYHGDVV

Molecular target: SHP2 C-SH2 domain E139D
Assay: enrichment score (SH2-bound / input frequency) (ratio); bacterial display of known human phosphotyrosine sites (pTyr-Var adds point mutants) read by sequencing; higher = stronger binding; tyrosines were phosphorylated by kinases first
Details: peptide library: pTyr-Var
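Note: displayed peptides selected on beads carrying the immobilized SH2 domain, with library peptides lacking any tyrosine serving as negative controls.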

Enrichment score, active:
B2 3.91, B14 6.62

Enrichment score, inactive:
B1 1.02, B3 0.889, B4 1.36, B5 0.563, B6 0.99, B7 1.24, B8 0.633, B9 0.471, B10 0.844, B11 0.613, B12 0.69, B13 2.51, B15 0.701, B16 0.637, B17 1.03, B18 0.736, B19 0.699, B20 0.887, B21 0.539, B22 0.542, B23 3.14, B24 0.763, B25 0.669, B26 0.927, B27 0.442, B28 0.828, B29 0.796, B30 0.824, B31 0.474, B32 0.381, B33 0.961, B34 1.07, B35 0.602, B36 1.25, B37 1.95

Molecular target: SHP2 C-SH2 domain wild-type
Assay: as above
Details: peptide library: pTyr-Var

Enrichment score, active:
B14 7.84

Enrichment score, inactive:
B1 0.644, B2 2.85, B3 0.931, B4 1.45, B5 0.633, B6 0.77, B7 1.05, B8 0.788, B9 0.436, B10 1.34, B11 0.578, B12 0.574, B13 1.62, B15 0.893, B16 0.485, B17 0.9, B18 0.76, B19 0.842, B20 0.738, B21 0.631, B22 0.49, B23 3.1, B24 0.629, B25 0.379, B26 0.821, B27 0.432, B28 0.685, B29 0.567, B30 0.725, B31 0.564, B32 0.43, B33 0.942, B34 1.73, B35 0.516, B36 1.07, B37 1.74

Molecular target: SHP2 N-SH2 domain L43F
Assay: as above
Details: peptide library: pTyr-Var

Enrichment score, inactive:
B1 0.732, B3 0.993, B4 1.51, B5 0.672, B6 1.06, B7 0.913, B8 0.66, B9 0.447, B10 1.01, B11 0.649, B12 0.594, B13 1.83, B15 0.818, B16 0.439, B17 0.965, B18 0.945, B19 0.768, B20 0.733, B21 0.605, B22 0.467, B23 2.79, B24 0.713, B25 0.506, B26 1.02, B27 0.416, B28 0.795, B29 0.789, B30 0.882, B31 0.501, B32 0.341, B33 0.913, B34 1.14, B35 0.917, B36 0.851, B37 1.68

Enrichment score, active:
B2 3.37, B14 13.5

Molecular target: SHP2 N-SH2 domain T42A
Assay: as above
Details: peptide library: pTyr-Var

Enrichment score, inactive:
B1 0.474, B2 2.59, B3 0.882, B4 1.55, B5 0.577, B6 0.871, B7 0.885, B8 0.523, B9 0.434, B10 0.843, B11 0.582, B12 0.57, B13 2.08, B15 0.655, B16 0.532, B17 0.839, B18 0.417, B19 0.85, B20 0.738, B21 0.451, B22 0.436, B23 2.4, B24 0.532, B25 0.6, B26 0.934, B27 0.49, B28 0.675, B29 0.833, B30 0.63, B31 0.626, B32 0.304, B33 0.651, B34 1.03, B35 0.522, B36 1.09, B37 1.06

Enrichment score, active:
B14 26.8

Molecular target: SHP2 N-SH2 domain T52S
Assay: as above
Details: peptide library: pTyr-Var

Enrichment score, inactive:
B1 0.563, B3 0.97, B4 1.61, B5 0.574, B6 0.997, B7 0.884, B8 0.576, B9 0.428, B10 0.831, B11 0.641, B12 0.618, B13 2.09, B15 0.714, B16 0.568, B17 0.865, B18 0.492, B19 0.596, B20 0.623, B21 0.452, B22 0.61, B23 2.95, B24 0.488, B25 0.465, B26 1.05, B27 0.408, B28 0.885, B29 0.76, B30 0.823, B31 0.494, B32 0.404, B33 1.12, B34 1.07, B35 0.928, B36 1.4, B37 1.56

Enrichment score, active:
B2 3.3, B14 14.7

Molecular target: SHP2 N-SH2 domain wild-type
Assay: as above
Details: peptide library: pTyr-Var

Enrichment score, active:
B14 6.96

Enrichment score, inactive:
B1 0.366, B2 2.29, B3 0.912, B4 1.45, B5 0.736, B6 0.78, B7 0.962, B8 0.723, B9 0.513, B10 1.41, B11 0.742, B12 0.769, B13 2.75, B15 1.05, B16 0.599, B17 0.876, B18 0.895, B19 0.907, B20 0.883, B21 0.765, B22 0.569, B23 2.7, B24 0.73, B25 0.58, B26 0.89, B27 0.456, B28 0.874, B29 0.812, B30 0.81, B31 0.746, B32 0.379, B33 0.853, B34 1.31, B35 0.678, B36 2.44, B37 1.55

Reference: the supplement of paper PMC10369915
